Where two headings read alike, the source gives them in different places.
Tests used:
[1] = test system: invasive GAS isolates; format: cell-based, S. pyogenes
[2] = test system: Enterobacteriaceae (ENT); format: cell-based
[3] = test system: Viridans group streptococci (VGS); format: cell-based; conditions: Penicillin-R (28)
[4] = test system: Enterococcus spp. (ESP); format: cell-based

Row | Structure (SMILES) | susceptibility of all isolates [1] | % inhibited at ≤ 1 mg/L [2] [%] | % inhibited at ≤ 1 mg/L [3] [%] | % inhibited at ≤ 1 mg/L ([4]; Van A (520)) [%] | % inhibited at ≤ 1 mg/L ([4]; Van B (95)) [%]
1 | CC1(C)S[C@@H]2[C@H](NC(=O)Cc3ccccc3)C(=O)N2[C@H]1C(=O)O [penicillin] | fully susceptible | – | – | – | –
2 | CN(C)c1cc(NC(=O)CNC(C)(C)C)c(O)c2c1C[C@H]1C[C@H]3[C@H](N(C)C)C(O)=C(C(N)=O)C(=O)[C@@]3(O)C(O)=C1C2=O [tigecycline] | – | 82 | 100 | 100 | 100

Source: article PMC7129916 (Clinical Microbiology and Infection, 2015)
